Source: publication PMC6005513
Substitutions are numbered along the chain they refer to. Results are given in words; binding and its absence hold for the method and conditions named. Some binding calls cover weakened binding; strength is not graded here.

Assays:
Assay in all cases: binding of fluorescently labelled peptide to transfected cells, plate fluorescence scan; 10 nM myr-preS1-Al633 peptide in DMEM, 20 min, 37°C, on NTCP/Ntcp-transfected HEK293 cells in 24-well plates; washed with DMEM 2 min at 37°C; plates scanned at room temperature (Typhoon FLA 7000, 633 nm), total signal per area; only the binder purified
[1] = target: T1, Chlorocebus aethiops (grivet) Ntcp, wild type (Chlorocebus aethiops)
T1 sequence: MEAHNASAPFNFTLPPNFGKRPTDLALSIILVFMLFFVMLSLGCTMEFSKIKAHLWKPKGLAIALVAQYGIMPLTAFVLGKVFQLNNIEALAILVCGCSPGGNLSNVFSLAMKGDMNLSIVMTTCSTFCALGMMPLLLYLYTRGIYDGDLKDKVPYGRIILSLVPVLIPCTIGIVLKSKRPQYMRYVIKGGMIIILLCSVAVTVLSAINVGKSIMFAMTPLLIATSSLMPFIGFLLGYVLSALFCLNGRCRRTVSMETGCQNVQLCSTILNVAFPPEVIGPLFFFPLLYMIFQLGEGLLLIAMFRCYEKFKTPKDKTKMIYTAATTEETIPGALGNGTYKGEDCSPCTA

[2] = target: T2, Macaca mulatta (rhesus macaque) Ntcp R158G (Macaca mulatta)
T2 sequence: T1 sequence with R158G

[3] = target: T3, Macaca silenus (lion-tailed macaque) Ntcp, wild type (Macaca silenus)
T3 sequence: T1 sequence

human NTCP G158V (human) = target: T4, human NTCP G158V (human) (UniProt Q14973)
T4 sequence: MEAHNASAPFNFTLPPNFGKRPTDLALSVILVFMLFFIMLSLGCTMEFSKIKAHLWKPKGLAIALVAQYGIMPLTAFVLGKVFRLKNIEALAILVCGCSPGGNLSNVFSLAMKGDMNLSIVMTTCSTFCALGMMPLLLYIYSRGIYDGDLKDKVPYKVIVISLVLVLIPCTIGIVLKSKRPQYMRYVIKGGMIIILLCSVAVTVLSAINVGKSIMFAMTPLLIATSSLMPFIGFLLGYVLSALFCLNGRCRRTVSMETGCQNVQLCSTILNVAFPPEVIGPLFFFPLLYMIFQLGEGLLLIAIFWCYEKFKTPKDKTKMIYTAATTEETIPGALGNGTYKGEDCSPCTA

[4] = target: T5, human Na+/taurocholate co-transporting polypeptide (NTCP), wild type (human) (UniProt Q14973)
T5 sequence: T4 sequence with V158G

[5] = target: T6, sodium-dependent organic anion transporter (SOAT) (UniProt Q3KNW5)
T6 sequence: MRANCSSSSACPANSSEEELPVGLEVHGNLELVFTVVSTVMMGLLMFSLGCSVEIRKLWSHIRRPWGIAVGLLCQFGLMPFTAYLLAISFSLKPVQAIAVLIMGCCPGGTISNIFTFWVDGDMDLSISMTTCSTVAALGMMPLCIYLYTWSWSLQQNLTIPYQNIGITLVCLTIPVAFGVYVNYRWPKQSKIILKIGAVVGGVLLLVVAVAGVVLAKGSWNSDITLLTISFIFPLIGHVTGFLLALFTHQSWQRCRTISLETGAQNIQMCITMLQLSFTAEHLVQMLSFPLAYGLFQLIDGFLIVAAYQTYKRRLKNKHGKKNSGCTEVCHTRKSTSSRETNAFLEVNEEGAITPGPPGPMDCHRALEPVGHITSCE

Measured: binding

HBV myr-preS1-Al633-peptide (from UniProt P03138 2-48)
binds: [2] | [4]
no binding (tested: 10 nM): all other assays above
